According to a collection of fitness landscapes (doi:10.1016/j.celrep.2020.107928):
Whole data set: some 81,000 sequences, median “one-hybrid fitness for binding NBS DNA” near -0.1, cut for the highest 2% near 0.36. The list shows a part of the results.

B1: Caulobacter ParB omega fusion; a variant is named by its letters at X, in order, B8GW30 (parent)
chain: MESVVVGEPGMSEGRRGLGRGLSALLGEVDAAPAQAPGEQLGGSREAPIEILQRNPDQPRRTFREEDLEDLSNSIREKGVLQPILVRPSPDTAGEYQIVAGERAWRAAQRAGLKTVPIMVRELDDLAVLEIGIIENVQRADLNVLEEALSYKVLMEKFERTQENIAQTIGKSXSHVANXMRLLXLPDEVQSYLVSGELTAXHARAIAAAADPVALAKQIIEGGLSVRETEALARKAPNLSAGKSKGGRPPRVKDTDTQALESDLSSVLGLDVSIDHRGSTGTLTITYATLEQLDDLCNRLTRGI

Variants of: B1
Test: one-hybrid fitness for binding NBS DNA (the Noc-binding site; scaled: cognate 1, non-cognate 0); higher = stronger binding
Conditions: with NBS DNA site
In short: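 On M9-minus-histidine containing 0.1 mM IPTG and 5 mM 3-AT, E. coli USO cells with a HIS3 reporter, site 19 bp from the promoter, grew 48 hours at 37°C to select Caulobacter ParB libraries randomised at four specificity codons. Plasmids from before and after were Illumina-sequenced, with three replicate libraries pooled and variants under 10 reads left out. Fitness is the log change in variant-to-wild-type read ratio, rescaled against cognate and non-cognate.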

one-hybrid fitness for binding NBS DNA, ≤ 0.2:
CHHG
WQNY
THRT
YRQT
EKSV
YRER
HALE
AINC
SRPG
WYFG
HIFI
GTAF
TLLS
QRPL
GGSR
CPPN
RPHI
KMFC
EPAI
LLNH
FQPG
GQLM
YVIG
NPWT
RHLA
FAHW
RTPW
SMDR
YARG
WENG
LEMS
TCWW
NPFC
TNFL
HIIS
PYWA
AHPS
RQKL
GNKG
EMGL
QADC
LEEI
QIAY
MLNT
ADPA
RPDR
TWCM
RDQN
RDKN
RNWR
SKWD
GSQA
WCSK
VCPR
LNGM
SLNT
TQLK
DDPC
PETG
CARM
RGTY
HGEV
FRVC
TDRQ
WTPS
DLDM
RPLW
ERSM
QSHD
MWAY
RWLV
YKYS
KEGY
RSSW
PSLD
TTAH
QELD
TTFD
YNTM
SGSF
LAEL
PMLG
LHVS
ATVH
RAGW
LQHC
QQHM
RFPL
WIDC
QQDY
PRET

one-hybrid fitness for binding NBS DNA, 0.332:
QRWC

one-hybrid fitness for binding NBS DNA, 0.261:
PFKR

one-hybrid fitness for binding NBS DNA, 0.676:
RKRT

one-hybrid fitness for binding NBS DNA, 0.228:
VCKR

one-hybrid fitness for binding NBS DNA, 0.242:
QSRP

one-hybrid fitness for binding NBS DNA, 0.268:
RRQQ
